The other results are listed elsewhere or left out.

For one experiment, the system named is HSkMC. The experiment in a line: cytotoxicity call (relative viability < 0.9). Conditions: 10 µM.
The next experiment relates to HepG2. The experiment in a line: cytotoxicity call (relative viability < 0.9). Conditions: 10 µM.
The subject of a further experiment is S. aureus RN4220. The experiment in a line: growth inhibition call (relative growth <= 0.2). Conditions: 50 µM.

For the compound `O=C(O)CCc1nc(-c2ccccc2)c(-c2ccccc2)o1`, the cytotoxicity call with HSkMC and with HepG2 was “inactive” throughout. In addition, the growth inhibition call in the experiment on S. aureus RN4220 was “inactive”.

For the compound `Cc1noc(C)c1S(=O)(=O)Nc1ccc2c(c1)C(=O)N([C@H](C)CO)C[C@H](C)[C@H](CN(C)C(=O)Nc1ccc(F)cc1)OCCCC[C@H](C)O2`, the cytotoxicity call in the experiment with HSkMC and in the experiment with HepG2 was “inactive” each time. Moreover, the growth inhibition call in the experiment with S. aureus RN4220 is “inactive”.

With `C=CCC[C@@H](Cc1ccc(F)cc1)C(=O)OC[C@H]1CCCN1C(=O)[C@@H](CC=C)CC(=O)N(CCO)Cc1ccccc1`, the cytotoxicity call with HSkMC and in the experiment on HepG2 was “inactive” each time. The growth inhibition call with S. aureus RN4220 was “inactive”.

`C[C@H](CO)N1C[C@H](C)[C@@H](CN(C)S(=O)(=O)c2cn(C)cn2)Oc2ccc(NC(=O)CCCN(C)C)cc2C1=O`: the cytotoxicity call in the experiment with HSkMC and in the experiment on HepG2 was “inactive” throughout. Besides, the growth inhibition call in the experiment on S. aureus RN4220 is “inactive”.

As to `Cc1noc(C)c1NC(=O)Nc1ccc2c(c1)C(=O)N([C@@H](C)CO)C[C@@H](C)[C@@H](CN(C)C(=O)Nc1c(C)noc1C)OCCCC[C@@H](C)O2`, the cytotoxicity call in the experiment with HSkMC and with HepG2 was “inactive” throughout. The growth inhibition call in the experiment with S. aureus RN4220 is “inactive”.

Consider `COc1ccc(CN(C)C[C@@H]2Oc3ccc(NS(C)(=O)=O)cc3C(=O)N([C@@H](C)CO)C[C@H]2C)cc1`, for which the cytotoxicity call in the experiment with HSkMC and in the experiment on HepG2 was “inactive” in each case. The growth inhibition call with S. aureus RN4220 was “inactive”.

For `CC(C)C[C@H](N)C(=O)N[C@@H](C)C(=O)O`, the cytotoxicity call with HSkMC was “inactive”. The cytotoxicity call in the experiment on HepG2 is “active”. Also, in the experiment with S. aureus RN4220, the growth inhibition call is “inactive”.

With `O=c1[nH]ccn(-c2ccccc2)c1=O`, the cytotoxicity call in the experiment on HSkMC is “inactive”. The cytotoxicity call in the experiment with HepG2 is “active”. Besides, the growth inhibition call in the experiment on S. aureus RN4220 is “inactive”.

For the compound `C[C@@H]1CN([C@@H](C)CO)C(=O)c2cc(NC(=O)Nc3ccc(F)cc3)ccc2O[C@@H](C)CCCCO[C@@H]1CN(C)C(=O)NC1CCCCC1`, the cytotoxicity call in the experiment with HSkMC and with HepG2 was “inactive” in each case. In the experiment with S. aureus RN4220, the growth inhibition call is “inactive”.

As for `C[C@H]1CN([C@@H](C)CO)C(=O)c2cc(NC(=O)Nc3ccc(C(F)(F)F)cc3)ccc2O[C@@H]1CN(C)Cc1ccc(C(=O)Nc2ccccc2N)cc1`, the cytotoxicity call in the experiment on HSkMC and in the experiment on HepG2 was “inactive” each time. Besides, the growth inhibition call with S. aureus RN4220 was “inactive”.

As for `C[C@H](CO)N1C[C@H](C)[C@H](CN(C)S(=O)(=O)c2ccc(F)cc2)Oc2ccc(NC(=O)Nc3cccc4ccccc34)cc2CC1=O`, the cytotoxicity call in the experiment with HSkMC is “inactive”. Moreover, the cytotoxicity call in the experiment with HepG2 was “active”. In the experiment with S. aureus RN4220, the growth inhibition call was “inactive”.

With `Cc1ccc(S(=O)(=O)Nc2cccc3c2O[C@@H](CN(C)C(=O)Nc2cccc4ccccc24)[C@H](C)CN([C@H](C)CO)C3=O)cc1`, the cytotoxicity call with HSkMC and in the experiment with HepG2 was “inactive” in each case. Besides, the growth inhibition call in the experiment with S. aureus RN4220 was “inactive”.

Take `COCCNC(=O)C[C@H]1C[C@H]2c3cc(NC(=O)CN(C)C)ccc3O[C@H]2[C@@H](CO)O1`: the cytotoxicity call in the experiment on HSkMC and with HepG2 was “inactive” throughout. Besides, the growth inhibition call with S. aureus RN4220 is “inactive”.

`CN(C)c1cnccn1.O=S(=O)(O)O`: the cytotoxicity call with HSkMC and in the experiment with HepG2 was “inactive” each time. Moreover, the growth inhibition call in the experiment on S. aureus RN4220 was “inactive”.

In the case of `CN(C)c1nc(N(C)C)nc(N(C)C)n1`, the cytotoxicity call with HSkMC and with HepG2 was “inactive” throughout. Moreover, the growth inhibition call in the experiment on S. aureus RN4220 was “inactive”.

Turning to `CN(C)CC#Cc1ccc([C@H]2[C@@H](CO)N3C(=O)CN(C(=O)CN(C)C)C[C@H]23)cc1`, the cytotoxicity call in the experiment with HSkMC and in the experiment on HepG2 was “inactive” each time. Also, in the experiment with S. aureus RN4220, the growth inhibition call is “inactive”.

For `C[C@@H]1CN([C@H](C)CO)C(=O)c2cccc(NC(=O)C3CCOCC3)c2O[C@@H]1CN(C)S(=O)(=O)c1ccc(Cl)cc1`, the cytotoxicity call in the experiment on HSkMC and in the experiment with HepG2 was “inactive” each time. Besides, in the experiment on S. aureus RN4220, the growth inhibition call is “inactive”.

Turning to `Cc1noc(C)c1NC(=O)Nc1ccc2c(c1)C(=O)N([C@H](C)CO)C[C@H](C)[C@@H](CN(C)C(=O)Nc1ccc(C(F)(F)F)cc1)OCCCC[C@@H](C)O2`, the cytotoxicity call with HSkMC and in the experiment on HepG2 was “inactive” throughout. Also, in the experiment on S. aureus RN4220, the growth inhibition call is “inactive”.

As for `COc1ccc(NC(=O)Nc2ccc3c(c2)C(=O)N([C@@H](C)CO)C[C@@H](C)[C@H](CN(C)Cc2ccc(C(=O)O)cc2)OCCCC[C@H](C)O3)cc1`, the cytotoxicity call in the experiment with HSkMC and with HepG2 was “inactive” each time. For the same compound, in the experiment on S. aureus RN4220, the growth inhibition call is “inactive”.

In the case of `O=C(O)c1ccc(-c2ccco2)s1`, the cytotoxicity call in the experiment on HSkMC and in the experiment with HepG2 was “inactive” in each case. In addition, the growth inhibition call in the experiment with S. aureus RN4220 is “inactive”.

On to `C[C@@H]1CN([C@@H](C)CO)S(=O)(=O)c2ccc(Br)cc2O[C@@H]1CN(C)C(=O)c1ccc(F)cc1`, for which the cytotoxicity call in the experiment with HSkMC and in the experiment on HepG2 was “inactive” throughout. Also, the growth inhibition call in the experiment with S. aureus RN4220 is “inactive”.

As to `CC(C)(N)C(=O)N[C@H](COCc1ccccc1)C(=O)N1CCC2(CC1)CN(S(C)(=O)=O)c1ccccc12`, in the experiment with HSkMC, the cytotoxicity call was “active”. The cytotoxicity call in the experiment with HepG2 was “inactive”. Also, the growth inhibition call in the experiment on S. aureus RN4220 is “inactive”.

On to `NC(=O)c1ccc(N)cc1N1CCCC1`, for which the cytotoxicity call with HSkMC and in the experiment with HepG2 was “inactive” throughout. For the same compound, in the experiment with S. aureus RN4220, the growth inhibition call was “inactive”.

For the compound `NCc1ccc2nsnc2c1`, the cytotoxicity call with HSkMC and in the experiment on HepG2 was “inactive” in each case. Also, the growth inhibition call in the experiment on S. aureus RN4220 was “inactive”.

Turning to `CO[C@@H]1CN(C)C(=O)c2ccc(NC(=O)c3cc(C)on3)cc2OC[C@@H](C)N(S(=O)(=O)c2ccccc2)C[C@H]1C`, the cytotoxicity call in the experiment on HSkMC and in the experiment on HepG2 was “inactive” each time. Also, in the experiment with S. aureus RN4220, the growth inhibition call was “inactive”.

In the case of `C[C@@H]1CCCCO[C@@H](CN(C)S(=O)(=O)c2cn(C)cn2)[C@@H](C)CN([C@H](C)CO)C(=O)c2cc(NS(=O)(=O)c3cn(C)cn3)ccc2O1`, the cytotoxicity call with HSkMC and with HepG2 was “inactive” each time. Besides, the growth inhibition call with S. aureus RN4220 is “inactive”.

Consider `C=CC(C)(O)CCC=C(C)CCC=C(C)C` (centres undefined), for which the cytotoxicity call in the experiment on HSkMC (human skeletal muscle cells) was “inactive”. Further, the cytotoxicity call with HepG2 is “active”. In addition, the growth inhibition call in the experiment on S. aureus RN4220 was “inactive”.

Regarding `Cc1ccc(S(=O)(=O)Nc2ccc3c(c2)CC(=O)N([C@@H](C)CO)C[C@H](C)[C@@H](CN(C)CC2CC2)O3)cc1`, the cytotoxicity call with HSkMC and in the experiment with HepG2 was “inactive” throughout. Further, the growth inhibition call in the experiment on S. aureus RN4220 is “inactive”.

Source of the values: the antibiotic and cytotoxicity screens of Wong et al. (2023).
